Experimental data taken from PubChem BioAssay AID493208 (National Center for Advancing Translational Sciences (NCATS), 2011).
In all, about 44,000 compounds went through this assay and about 340 (0.77%) were called active. Inconclusive results (about 5%) are left out. The call rests on the fitted dose curve; in most records, active means well fitted inhibition curve with a large enough effect; inconclusive means small, poorly fitted or top-dose-only effect; inactive means flat fitted curve, though single readings scatter. The list shows a part of the results.

assay: Acumen qHTS Assay for Inhibitors of the mTORC1 Signaling Pathway in MEF (Tsc2-/-, p53-/-) Cells: Sytravon; settings: phospho-rpS6 immunofluorescence/PI, 24 h; series mostly up to 38.3 µM; activity change, negative = inhibition: at the top concentration;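 further: plate controls were DMSO for no effect and rapamycin for full effect; nearly all actives have a fitted effect of over 50% in size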
Procedure, shortened: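 Tsc2-/-, p53-/- MEFs (empty-vector stable line) in DMEM + 10% FBS were treated with compounds 24 h at 37 degree Celsius, fixed, and immunostained for phospho-rpS6 (Alexa-488) with propidium iodide counterstain. Laser-scanning cytometry gave % positive cells, normalized against 7.5 nM rapamycin and DMSO.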

Activity change, negative = inhibition, inactive:
COc1ccccc1NC(=O)c1c(C)cc(C)nc1SCC(=O)Nc1ccc(C)c(C)c1 -16.6%
COc1cccc(-n2ccn(CC(=O)NCc3ccc(C)cc3)c(=O)c2=O)c1 7.31%
Cc1ccc(NC(=O)Nc2cccc(C)n2)cc1 2.13%
Cc1cc(C)c(NS(=O)(=O)c2ccc3c(c2)CC(C)N3C(=O)C2CCC2)c(C)c1 (configuration not stated) -6.43%
CCOc1ccc(C2CC(=O)NC(NC(=O)c3cccc(Cl)c3)=N2)cc1 (configuration not stated) -5.42%
O=C(Nc1ccc2nc(SCCOc3ccccc3)sc2c1)c1ccccc1F -11.6%
Cc1ccc(CSC2=Nc3ccccc3C3=NC(CC(=O)NCc4cccs4)C(=O)N23)c(C)c1 (configuration not stated) 1.19%
CCCCNS(=O)(=O)c1ccc(N2CCCCS2(=O)=O)cc1 -0.0544%
COc1ccc(-c2cn3c(n2)sc2cc(C(=O)Nc4cccc(SC)c4)ccc23)cc1 5.2%
CCc1ccc(N(CC)C(=O)CCn2cnc3onc(-c4ccc(F)cc4)c3c2=O)cc1 -2.38%
CCOC(=O)c1c(C)c(-c2ccccc2)n(CC(=O)Nc2ccc(OCC)cc2)c1C -7.42%
Cc1ccc(Cl)cc1N1CCN(C(=O)C2CCN(S(=O)(=O)Cc3ccccc3)CC2)CC1 -0.069%
COc1ccccc1-c1noc(-c2ccc(N3CCN(C)CC3)c([N+](=O)[O-])c2)n1 -0.178%
Cc1ccc(-c2ccc(=O)n(CC(=O)NCCc3ccc(Cl)cc3)n2)cc1 12.3%
COC(=O)C(CCSC)NC(=O)Cn1ncc2c([nH]c3ccccc32)c1=O (configuration not stated) -1.16%
COc1ccc(NC(=O)c2c(NCc3cccs3)sc3c2CCCC3)c(OC)c1 -13.4%
CCCOc1ccc(CNC(=O)c2ccc3c(c2)N(Cc2ccccc2)CCS3)cc1 -5.68%
COc1cccc2c1cc1c(=O)n(CC(=O)N3CCN(c4cccc(Cl)c4)CC3)nc(C)n12 -0.289%
O=C(OCc1cc(=O)n2nc(-c3cccs3)sc2n1)c1ccccc1 3.52%
CC(=O)n1nc(-c2cccnc2)nc1NCc1ccc(F)cc1 7.02%
O=C1c2oc3ccccc3c(=O)c2C(c2ccc(O)cc2)N1Cc1ccc2c(c1)OCO2 (configuration not stated) 3.24%
O=C(c1ccc(Cl)cc1)N1CCC(c2nc3ccccc3o2)CC1 0.907%
CCOc1ccc(NC(=O)c2c(NCc3ccc(C)o3)sc3c2CCCCC3)cc1 -27.4%
Cc1ccc(CNC(=O)CN2C(=O)CSc3ccc(S(=O)(=O)N(C)C)cc32)cc1 4.52%
CC(C)CN(CCCNC(=O)c1cc(-c2cccs2)nc2ccccc12)CC(C)C 1.78%
CCN1CCN(CCCNC(=O)c2cnn(-c3ccccc3Cl)c2C2CCN(C(=O)OC(C)(C)C)CC2)CC1 -9.62%
CCOC(=O)C1CCCN(c2c(C(=O)c3ccc(OCC)cc3)cnc3ccccc23)C1 (configuration not stated) 0.446%
Cc1cc(F)ccc1NC(=O)C1CCN(C(=O)c2cnn(-c3ccccc3)c2-n2cccc2)CC1 -1.07%
COC(=O)c1ccccc1NC(=O)c1ccc(-c2nc(COc3ccccc3)c(C)o2)cc1 -1.53%
CCCCc1nn2c(=O)cc(COC(=O)c3cccc(Cl)c3)nc2s1 -12.3%
O=C(c1ccccc1)c1cn(Cc2ccc(F)cc2)c2ccccc2c1=O -8.67%
Cc1cccc(C)c1NC(=O)Cn1nnc(C(=O)Nc2c(C)cccc2C)c1N -7.75%
O=C(CCC1N=C2c3ccccc3N=C(SCc3cccc(F)c3)N2C1=O)NCCc1ccccc1 (configuration not stated) 0.17%
Cc1ccc(CNC(=O)CN2C(=O)CSc3c2c(C)nn3-c2ccccc2)cc1 2.95%
COc1ccc(C)cc1NC(=O)CCNC(=O)Cn1ccc2ccccc2c1=O -1.68%
COc1ccc(NC(=O)c2oc3ccccc3c2NC(=O)Cc2coc3cc(C)ccc23)cc1 0.662%
CCOC(=O)c1c(C)[nH]c(CCC(=O)NCc2cccc(C)c2)c1C -0.402%
COCCCn1c(=N)c(C(=O)NCc2cccnc2)cc2c(=O)n3cccc(C)c3nc21 -21.8%
COc1ccc(-n2ncc(C(=O)Nc3ccc4c(c3)OCO4)c2C2CCN(C(=O)OC(C)(C)C)CC2)cc1 -2.6%
Cc1ccc(NC(=O)Cn2cc(S(=O)(=O)Cc3cccc(Cl)c3)c3ccccc32)cc1C -19.3%
COc1ccc(C2=C(C)C(=NCCCN3CCN(c4cc(Cl)ccc4C)CC3)NS2(=O)=O)cc1 2.13%
O=C(NCc1ccccc1Br)c1ccc2c(c1)nc1n2CCOC1 0.835%
Cn1c(-c2ccccc2)cnc1NCc1ccccc1O -16.9%
CCCNC(=O)COCc1cc(-c2ccc(F)cc2)on1 0.601%
O=C(CCC1N=C2c3ccccc3N=C(SCc3ccccc3F)N2C1=O)NCc1ccccc1 (configuration not stated) 0.866%
Cc1ccc2nc(N3CCN(c4ccccc4F)CC3)c3nnnn3c2c1 -9.17%
COc1ccc(CC(=O)NCc2ccc3c(c2)CCN3C(=O)c2cccc(C)c2)cc1 -12.7%
Cc1ccc(-n2cnc3cc(C(=O)NCc4ccccc4Cl)ccc32)c(C)c1 0%
CCCOc1cccc(C2c3c(oc4ccc(F)cc4c3=O)C(=O)N2Cc2ccc3c(c2)OCO3)c1 (configuration not stated) 0.483%
Cc1nc(-n2nc(C)c(Cc3ccc4c(c3)OCO4)c2C)sc1C(=O)Nc1ccc(Cl)cc1 -2.1%
Cc1cccc(Cn2cccc2CNS(=O)(=O)c2ccc(C)c(C)c2)c1 9.04%
CN1CCSc2ccc(C(=O)NCc3ccccc3)cc21 -5.21%
CCCCN(Cc1ccco1)C(=O)Cn1ncc2c([nH]c3ccccc32)c1=O -0.599%
O=C(c1ccco1)n1nc(-c2ccc(Cl)cc2)nc1NCc1ccc(F)cc1 0.735%
COc1ccc(C2C(C(=O)Nc3ccccc3)=C(C)Nc3nc(-c4ccccc4Cl)nn32)cc1OC (configuration not stated) -1.82%
CCOCCCNc1nc2cc(OC)c(OC)cc2c2nc(-c3ccccc3)nn12 0.363%
Cc1ccc(NC(=O)Cn2c(=O)n(CCC(=O)NCc3ccccc3Cl)c(=O)c3ccccc32)c(C)c1 -3.68%
Cc1cccc(NS(=O)(=O)c2ccc3nc(-c4ccccc4)[nH]c3c2)c1C 1.16%
CCOC(=O)c1scc(-c2ccc(C)cc2)c1S(=O)(=O)Nc1ccc(OC)c(Cl)c1 -8.51%
O=C(Nc1ccc2nc(SCCOc3ccccc3)sc2c1)c1ccc2c(c1)OCO2 -2.47%
Clc1ccccc1Nc1ncnc2c1nc1n2CCCCC1 -11.8%
COc1cc2[nH]c(=O)n(CCCCCC(=O)N3CCN(c4ccc(Cl)cc4)CC3)c(=O)c2cc1OC -7.86%
